Experimental data published in the supplement of paper PMC4604168 (melanoma cell lines).
The list shows a part of the results. Single values are uncertain, as repeats are few or missing.

Key:
Assay in all cases: cell count relative to DMSO control; melanoma cells; higher = more viable cells
MZ2-MEL = conditions: library dose: low library concentration; 72 h
MeWo = conditions: library dose: low library concentration; 72 h
RPMI7951 = conditions: library dose: low library concentration; 72 h
RVH-421 = conditions: library dose: low library concentration; 72 h
SkMel28 = conditions: library dose: low library concentration; 72 h
SkMel30 = conditions: library dose: low library concentration; 72 h
SkMel5 = conditions: library dose: low library concentration; 72 h
UACC257 = conditions: library dose: low library concentration; 72 h
UACC62 = conditions: library dose: low library concentration; 72 h
WM115 = conditions: library dose: low library concentration; 72 h
WM1716 = conditions: library dose: low library concentration; 72 h
WM1745 = conditions: library dose: low library concentration; 72 h
WM3526 = conditions: library dose: low library concentration; 72 h
WM3619 = conditions: library dose: low library concentration; 72 h
WM451Lu = conditions: library dose: low library concentration; 72 h
501Mel = conditions: library dose: standard library concentration; 72 h
A101D = conditions: library dose: standard library concentration; 72 h
A2058 = conditions: library dose: standard library concentration; 72 h
A375 = conditions: library dose: standard library concentration; 72 h

Structure (SMILES)	cell count (MZ2-MEL)	cell count (MeWo)	cell count (RPMI7951)	cell count (RVH-421)	cell count (SkMel28)	cell count (SkMel30)	cell count (SkMel5)	cell count (UACC257)	cell count (UACC62)	cell count (WM115)	cell count (WM1716)	cell count (WM1745)	cell count (WM3526)	cell count (WM3619)	cell count (WM451Lu)	cell count (501Mel)	cell count (A101D)	cell count (A2058)	cell count (A375)
COC(=O)c1sccc1S(=O)(=O)Nc1ccc(Nc2ccccc2)cc1OC + O=C(Oc1ccc([N+](=O)[O-])cc1)N1CCC(C(O)(c2ccc3c(c2)OCO3)c2ccc3c(c2)OCO3)CC1 [JZL184] (first compound 1 µM, partner dose 1 µM)	97.4%	90.8%	102%	95.3%	97.3%	102%	100%	107%	108%	99%	98.7%	101%	85.5%	104%	90.9%	–	–	–	–
Cc1cn(-c2cc(NC(=O)c3ccc(C)c(Nc4nccc(-c5cccnc5)n4)c3)cc(C(F)(F)F)c2)cn1 [nilotinib] + C[As](C)SC[C@H](NC(=O)CC[C@H](N)C(=O)O)C(=O)NCC(=O)O [Darinaparsin] (first compound 0.2 µM, partner dose 0.4 µM)	91.5%	92%	84.5%	94.2%	92%	77.8%	–	–	94%	106%	102%	86.3%	88.2%	80.5%	111%	–	–	–	–
O=c1[nH]nc(Sc2ncc([N+](=O)[O-])s2)n1-c1ccc2c(c1)OCCO2 + C[C@]12O[C@H](C[C@]1(O)CO)n1c3ccccc3c3c4c(c5c6ccccc6n2c5c31)CNC4=O [Lestaurtinib] (first compound 0.2 µM, partner dose 0.004 µM)	–	99.2%	104%	85.9%	104%	99.3%	–	–	105%	97.4%	98.7%	90.5%	91.7%	95.2%	105%	–	–	–	–
COc1ccc(C2=N[C@@H](c3ccc(Cl)cc3)[C@@H](c3ccc(Cl)cc3)N2C(=O)N2CCNC(=O)C2)c(OC(C)C)c1 [Nutlin-3] + C[C@]12O[C@H](C[C@]1(O)CO)n1c3ccccc3c3c4c(c5c6ccccc6n2c5c31)CNC4=O [Lestaurtinib] (first compound 0.1 µM, partner dose 0.004 µM)	98.7%	83.3%	87.9%	89%	96.4%	95.9%	–	–	97.1%	90.3%	82.2%	89.6%	93.5%	91.2%	98.3%	–	–	–	–
Cc1cc(SCc2sc(-c3ccc(C(F)(F)F)c(F)c3)nc2C)ccc1OCC(=O)O + c1cc(-c2cnn3cc(-c4ccc(OCCN5CCCCC5)cc4)cnc23)ccn1 [Dorsomorphin] (first compound 10 µM, partner dose 2 µM)	–	–	–	–	–	–	–	–	–	–	–	–	–	–	–	47.8%	79.7%	94%	90.5%
C/C(O)=C(\C#N)C(=O)Nc1cc(Br)ccc1Br + O=C(Oc1ccc([N+](=O)[O-])cc1)N1CCC(C(O)(c2ccc3c(c2)OCO3)c2ccc3c(c2)OCO3)CC1 [JZL184] (first compound 10 µM, partner dose 5 µM)	–	–	–	–	–	–	–	–	–	–	–	–	–	–	–	96.3%	101%	82.3%	92%
Cc1cn(-c2cc(NC(=O)c3ccc(C)c(Nc4nccc(-c5cccnc5)n4)c3)cc(C(F)(F)F)c2)cn1 [nilotinib] + Cc1cc(SCc2sc(-c3ccc(C(F)(F)F)c(F)c3)nc2C)ccc1OCC(=O)O [GW0742] (first compound 1 µM, partner dose 10 µM)	–	–	–	–	–	–	–	–	–	–	–	–	–	–	–	66.9%	91.1%	101%	134%
Cc1cc(SCc2sc(-c3ccc(C(F)(F)F)c(F)c3)nc2C)ccc1OCC(=O)O + COc1cc2ncnc(Nc3ccc(Oc4ccccc4)cc3)c2cc1OC [SrcI1] (first compound 2 µM, partner dose 2 µM)	–	90.4%	103%	145%	107%	132%	102%	98.4%	92.1%	99.7%	122%	85.1%	137%	96.1%	98.3%	–	–	–	–
Cc1cc(SCc2sc(-c3ccc(C(F)(F)F)c(F)c3)nc2C)ccc1OCC(=O)O + C/C(O)=C(\C#N)C(=O)Nc1cc(Br)ccc1Br [LFM-A13] (first compound 10 µM, partner dose 10 µM)	–	–	–	–	–	–	–	–	–	–	–	–	–	–	–	111%	89.9%	102%	92.7%
Cc1cn(-c2cc(NC(=O)c3ccc(C)c(Nc4nccc(-c5cccnc5)n4)c3)cc(C(F)(F)F)c2)cn1 [nilotinib] + C[C@]12O[C@H](C[C@]1(O)CO)n1c3ccccc3c3c4c(c5c6ccccc6n2c5c31)CNC4=O [Lestaurtinib] (first compound 0.2 µM, partner dose 0.004 µM)	105%	83.6%	103%	108%	111%	80.1%	–	–	112%	104%	108%	78.7%	114%	98.8%	114%	–	–	–	–
Cc1cc(SCc2sc(-c3ccc(C(F)(F)F)c(F)c3)nc2C)ccc1OCC(=O)O + CCCCCCCCCCCC1=C(O)C(=O)C=C(O)C1=O [Embelin] (first compound 10 µM, partner dose 6 µM)	–	–	–	–	–	–	–	–	–	–	–	–	–	–	–	131%	91.5%	106%	110%
Cn1cncc1[C@@](N)(c1ccc(Cl)cc1)c1ccc2c(c1)c(-c1cccc(Cl)c1)cc(=O)n2C [tipifarnib] + C/C(O)=C(\C#N)C(=O)Nc1cc(Br)ccc1Br [LFM-A13] (first compound 0.01 µM, partner dose 2 µM)	–	77.8%	101%	94.9%	92.6%	103%	92%	73.3%	72.2%	95.4%	88%	111%	94.8%	65.4%	95.6%	–	–	–	–
CC(=O)O[C@@]12CO[C@@H]1C[C@H](O)[C@@]1(C)C(=O)[C@H](O)C3=C(C)[C@@H](OC(=O)[C@H](O)[C@@H](NC(=O)OC(C)(C)C)c4ccccc4)C[C@@](O)([C@@H](OC(=O)c4ccccc4)[C@H]21)C3(C)C [Docetaxel] + C[As](C)SC[C@H](NC(=O)CC[C@H](N)C(=O)O)C(=O)NCC(=O)O [Darinaparsin] (first compound 0.0001 µM, partner dose 0.4 µM)	–	43.2%	40.6%	55.8%	59.8%	33.4%	–	–	42.7%	55.2%	41.1%	51.5%	51.9%	57.2%	53.2%	–	–	–	–
Cc1cc(SCc2sc(-c3ccc(C(F)(F)F)c(F)c3)nc2C)ccc1OCC(=O)O + O=c1cc(-c2cccc3c2Sc2ccccc2S3)oc(N2CCOCC2)c1 [KU55933] (first compound 2 µM, partner dose 1 µM)	–	102%	112%	113%	98.4%	85.8%	98.7%	97.8%	98.7%	98.5%	110%	88.6%	85.8%	92.8%	121%	–	–	–	–
NC(=O)c1ccc(N(C(N)=O)c2c(F)cccc2F)nc1-c1ccc(F)cc1F + C[C@]12O[C@H](C[C@]1(O)CO)n1c3ccccc3c3c4c(c5c6ccccc6n2c5c31)CNC4=O [Lestaurtinib] (first compound 0.4 µM, partner dose 0.004 µM)	108%	96.6%	96.6%	93.8%	115%	86.5%	–	–	84.4%	87.8%	94.7%	99.9%	78.5%	86.3%	93.9%	–	–	–	–
COc1cc([C@@H]2c3cc4c(cc3[C@@H](O[C@@H]3O[C@@H]5CO[C@@H](C)O[C@H]5[C@H](O)[C@H]3O)[C@H]3COC(=O)[C@H]23)OCO4)cc(OC)c1O [etoposide] + C[C@]12O[C@H](C[C@]1(O)CO)n1c3ccccc3c3c4c(c5c6ccccc6n2c5c31)CNC4=O [Lestaurtinib] (first compound 0.02 µM, partner dose 0.004 µM)	92%	81.9%	101%	95.6%	119%	99.3%	–	–	68.4%	87.6%	95.5%	96.9%	104%	106%	96.1%	–	–	–	–
CCCCCCCCc1ccc(CCC(N)(CO)CO)cc1 [fingolimod] + O=C(Oc1ccc([N+](=O)[O-])cc1)N1CCC(C(O)(c2ccc3c(c2)OCO3)c2ccc3c(c2)OCO3)CC1 [JZL184] (first compound 10 µM, partner dose 5 µM)	–	–	–	–	–	–	–	–	–	–	–	–	–	–	–	1.35%	2.27%	4.67%	29.6%
Cc1ccc(Nc2nccc(N(C)c3ccc4c(C)n(C)nc4c3)n2)cc1S(N)(=O)=O [Pazopanib] + C/C(O)=C(\C#N)C(=O)Nc1cc(Br)ccc1Br [LFM-A13] (first compound 2 µM, partner dose 10 µM)	–	–	–	–	–	–	–	–	–	–	–	–	–	–	–	99.9%	82.5%	84.3%	97%
Cn1c(=O)n(-c2ccc(C(C)(C)C#N)cc2)c2c3cc(-c4cnc5ccccc5c4)ccc3ncc21 + N.N.[Cl][Pt][Cl] [cisplatin] (first compound 0.004 µM, partner dose 1.6 µM)	–	73.5%	92.6%	87.3%	60.9%	76.7%	–	–	89%	94.7%	86.3%	104%	91.3%	90.5%	102%	–	–	–	–
Cn1cnc2c(F)c(Nc3ccc(Br)cc3Cl)c(C(=O)NOCCO)cc21 [selumetinib] + C[C@]12O[C@H](C[C@]1(O)CO)n1c3ccccc3c3c4c(c5c6ccccc6n2c5c31)CNC4=O [Lestaurtinib] (first compound 0.015 µM, partner dose 0.004 µM)	82.2%	92.2%	95.4%	81.8%	78.2%	55.6%	–	–	63.6%	89.7%	123%	82.1%	70.3%	68%	98.7%	–	–	–	–
CCc1ccc(CCOc2ccc(CC3SC(=O)NC3=O)cc2)nc1 (stereo not drawn) [pioglitazone] + C/C(O)=C(\C#N)C(=O)Nc1cc(Br)ccc1Br [LFM-A13] (first compound 10 µM, partner dose 10 µM)	–	–	–	–	–	–	–	–	–	–	–	–	–	–	–	102%	96.1%	106%	94.8%
COc1ccc2c(c1)CCC1C2CCC2(C)C(NCCCCCCN3C(=O)C=CC3=O)CCC12 (stereo not drawn) + O=C(Oc1ccc([N+](=O)[O-])cc1)N1CCC(C(O)(c2ccc3c(c2)OCO3)c2ccc3c(c2)OCO3)CC1 [JZL184] (first compound 2 µM, partner dose 5 µM)	–	–	–	–	–	–	–	–	–	–	–	–	–	–	–	93.3%	66.8%	81.9%	80.7%
CC1(C)CCC(c2ccc(Cl)cc2)=C(CN2CCN(c3ccc(C(=O)NS(=O)(=O)c4ccc(N[C@H](CCN5CCOCC5)CSc5ccccc5)c(S(=O)(=O)C(F)(F)F)c4)cc3)CC2)C1 + C[C@]12O[C@H](C[C@]1(O)CO)n1c3ccccc3c3c4c(c5c6ccccc6n2c5c31)CNC4=O [Lestaurtinib] (first compound 0.4 µM, partner dose 0.004 µM)	111%	90%	72.8%	74.4%	105%	92.5%	–	–	100%	90.4%	104%	14.7%	102%	92%	96.3%	–	–	–	–
CC(=O)c1c(C)c2cnc(Nc3ccc(N4CCNCC4)cn3)nc2n(C2CCCC2)c1=O [palbociclib] + O=C(Oc1ccc([N+](=O)[O-])cc1)N1CCC(C(O)(c2ccc3c(c2)OCO3)c2ccc3c(c2)OCO3)CC1 [JZL184] (first compound 0.2 µM, partner dose 5 µM)	–	–	–	–	–	–	–	–	–	–	–	–	–	–	–	59.9%	60.2%	93.3%	72%
O=C(Nc1cccc(Cl)c1)Nc1ncc(CCNc2ncnc3ccsc23)s1 + C/C(O)=C(\C#N)C(=O)Nc1cc(Br)ccc1Br [LFM-A13] (first compound 0.0008 µM, partner dose 2 µM)	–	93%	119%	114%	93.9%	107%	89.9%	106%	106%	67.6%	107%	84.1%	91.6%	84.6%	113%	–	–	–	–
